Measured values reported in PubChem BioAssay AID445 (National Center for Advancing Translational Sciences (NCATS), 2006).
Among all 110,000 compounds or so, about 40 (0.04%) were called active. This list was built around the results that the source calls inconclusive (neither active nor inactive); the mix of calls is not that of the screen. The call rests on the fitted dose curve; in most records, active means well fitted curve in the direction sought with a large enough effect in the signal ratio (not every such curve was filed as active); inconclusive means small, poorly fitted or top-dose-only effect, or a change in a side signal; inactive means flat fitted curve, though single readings scatter; the % refers to the signal ratio. Potencies of inconclusive entries are doubtful fits and often do not repeat.

test: IkB Signaling; details: ABC-DLBCL IkBa-CBG/CBR dual luciferase ratio (green luciferase fused to IkBa over red control in OCI-Ly3 lymphoma cells), 4 h; IkBa stabilization activation: at 57.1 µM (top of the series), scaled: untreated 0%, proteasome inhibitor 100% unless noted;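 on IkBa stabilization activation: 0% = basal untreated cells and 100% = reference inhibitor full response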
In short: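 In this assay, an IκBα–CBG68 fusion accumulates when IKK-driven degradation is blocked; native CBR normalizes for cell number. OCI-Ly3 cells were treated 4 h with compound and doxycycline, then green and red light read after Chroma-Glo addition.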
Potency means the concentration at half of the fitted maximal effect.

| Compound | IkBa stabilization activation | Potency |
| --- | --- | --- |
| Cc1ccccc1Nc1c(-c2cccs2)nc2cccc(C)n12 | inconclusive: 6.6% [signal inhibitor] |  |
| O=C(Nc1nnc(-c2ccccc2)s1)c1ccc(Cl)c(S(=O)(=O)N2CCOCC2)c1 | inactive: 1.5% |  |
| O=C(CSc1nc2c([nH]c3ccccc32)c(=O)n1-c1ccc(Cl)cc1)NCC1CCCO1 (stereo unspecified) | inactive: 0.691% |  |
| CCCCOc1cccc(OCCCC)c1C(=O)Nc1cc(C)on1 | inactive: 1.65% |  |
| CCOC(=O)c1c(C)oc2nc(C)nc(NCc3ccccc3OC)c12 | inconclusive: -0.558% [signal inhibitor] |  |
| CN(C)S(=O)(=O)c1ccc(C(=O)Nc2ccc(OCC(=O)N3CCOCC3)cc2)cc1 | inactive: -2.66% |  |
| Cc1ccccc1-c1nc(N2CCN(C)CC2)c2ccccc2n1 | inactive: 1.53% [at 11.4 µM, scaled: untreated 0%, proteasome inhibitor 100%] |  |
| COc1ccccc1NC(=O)Cn1c(=O)n(CCCCCC(=O)NCc2ccccc2)c(=O)c2sccc21 |  | inconclusive: 15.8 µM [signal inhibitor] |
| COc1cccc(C(=O)Nc2ccccc2-c2nnc(-c3cccc(OC)c3)o2)c1 | inconclusive: 4.04% [signal inhibitor] |  |
| CCNc1ncc2nc(C)c(=O)n(CCOC)c2n1 | inactive: 4.01% [at 11.4 µM, scaled: untreated 0%, proteasome inhibitor 100%] |  |
| N#Cc1c2n(c3c(=O)n(Cc4ccccc4Cl)cnc13)CCCC2 | inactive: -1.34% |  |
| Cc1cc(C(=O)COC(=O)CN(C)S(=O)(=O)c2ccc(Cl)cc2)c(C)n1CC1CCCO1 (stereo unspecified) | inactive: 0.0917% |  |
| COc1cccc(OC)c1NC(=O)Cc1nn(C)c(=O)c2ccccc12 | inactive: 0.0583% |  |
| COc1cc(/C=C(\C#N)C(N)=O)cc(CSc2nc3ccccc3s2)c1O | inactive: 0.0229% |  |
| CCOC(=O)C1CCN(c2ncnc3c2oc2ccc(Cl)cc23)CC1 | inactive: -1.81% |  |
| CC(=O)Cc1nsc(NC(=O)c2ccc(COc3ccc(C)cc3)o2)n1 | inconclusive: 0.617% [signal inhibitor] |  |
| O=S1(=O)C=C(Sc2nnc(-c3ccccc3)o2)c2ccccc21 | inconclusive: -1.9% [signal inhibitor] |  |
| C[C@H](C(=O)c1ccncc1)c1ccccn1 | inactive: 0.722% [at 11.4 µM, scaled: untreated 0%, proteasome inhibitor 100%] |  |
| COc1ccccc1-c1noc(-c2ccc(NC(C)C)c([N+](=O)[O-])c2)n1 | inactive: -2.43% |  |
| C/C=C(/C)C#N | inactive: -0.376% |  |
| CCCCC(=O)N(c1ccc(OCC)cc1)C1C=CS(=O)(=O)C1 (stereo unspecified) | inactive: 0.868% |  |
| COc1ccc2[nH]cc(S(=O)(=O)c3ccc(C)c(C)c3)c(=O)c2c1 | inconclusive: 3.91% [signal inhibitor] |  |
| Cc1nc(N2CCN(c3ccccc3)CC2)c2c3c(sc2n1)CCC3 | inconclusive: 0.838% [signal inhibitor] |  |

| Compound | IkBa stabilization activation | Potency |
| --- | --- | --- |
| COC(=O)COc1ccc(S(=O)(=O)Nc2ccc3c(c2)OCO3)cc1 | inconclusive: 10.2% [signal inhibitor] |  |
| Cc1nn2cc(-c3ccc(-c4ccccc4)cc3)nc2s1 | inconclusive: 4.02% [signal inhibitor] |  |
| COc1ccc(Cl)cc1NC(=O)CSC1=Nc2ccccc2C2=NC(CC(=O)NCc3cccs3)C(=O)N12 (stereo unspecified) | inconclusive: 1.44% [signal inhibitor] |  |
| O=C(NCc1ccccc1)c1cnc(N2CCCCC2)c2ccccc12 | inconclusive: -1.66% [signal inhibitor] |  |
| COc1cccc(Nc2nc3ccc(C)cc3nc2-n2nc(C)cc2C)c1 |  | inconclusive: 12.6 µM [signal inhibitor] |
| Cc1ccc(NC(=O)C2=CC(c3ccc4c(c3)OCO4)=NS(=O)(=O)N2C)cc1 | inconclusive: 2.12% [signal inhibitor] |  |
| CCOC(=O)Nc1sc(C(=O)N(CC)CC)c(C)c1C(=O)OCC | inactive: 3.8% |  |
| CCOc1cccc(C(=O)Nc2nnc(-c3ccco3)s2)c1 | inconclusive: 14.1% [signal inhibitor] |  |
| Cn1c(=O)n(CCCc2ccccc2)c(=O)c2c1nc1n2CCN1c1ccc(F)cc1 | inconclusive: 0.815% [signal inhibitor] |  |
| CCOC(=O)c1cc2c(=O)n3ccccc3nc2n(Cc2ccco2)c1=NC(=O)c1ccc(OCC)cc1 | inconclusive: -0.531% [signal inhibitor] |  |
| COc1ccc(NC(=O)c2ccc(Cl)c(S(=O)(=O)N3CCc4ccccc4C3)c2)cn1 | inconclusive: -0.246% [signal inhibitor] |  |
| Cn1c(NC(=O)c2ccccc2NC(=O)C(C)(C)C)nc2ccccc21 |  | inconclusive: 31.6 µM [signal inhibitor, partial curve] |
| O=C(c1ccco1)N1CCN(C(=O)c2cc(-c3ccncc3)nc3ccc(Br)cc23)CC1 | inactive: -0.359% |  |
| O=C(c1cc(-c2ccc(O)cc2)on1)N1CCN(c2ccccc2)CC1 | inconclusive: -8.89% [signal inhibitor] |  |
| O=C(O)CCCSc1nc2ccccc2s1 | inconclusive: -7.34% [signal inhibitor] [at 11.4 µM, scaled: untreated 0%, proteasome inhibitor 100%] |  |
| CCCCOC(=O)c1ccc(NC(=O)c2cnc3ccc(C)cn3c2=O)cc1 | inconclusive: 3.52% [signal inhibitor] |  |
| CCN(c1cccc(C)c1)c1ncnc2c1cnn2-c1cccc(Cl)c1 | inconclusive: 1.23% [signal inhibitor] |  |
| COc1ccc(CN2COc3ccc4c(-c5ccccc5)cc(=O)oc4c3C2)cc1OC | inactive: 0.314% |  |
| Cc1nn(C(=O)c2ccc(Br)cc2)c(C)c1Sc1ccccc1 | inconclusive: 3.21% [signal inhibitor] |  |
| COc1cc(OC)c(N(C)C(=O)c2sc3nc4n(c(=O)c3c2C)CCCC4)cc1Cl | inconclusive: -1.28% [signal inhibitor] |  |
| COc1ccccc1N1CCN(C(=O)COc2ccc(Cl)cc2Br)CC1 | inconclusive: 3.01% [signal inhibitor] |  |
| O=C(COc1cccc2ccccc12)N1CCN(c2ccccc2)CC1 | inconclusive: -0.599% [signal inhibitor] |  |
| COc1cccc(CNC(=O)c2ccc(NC(=O)N3CC(C)Sc4ccccc43)cc2)c1 (stereo unspecified) | inconclusive: 1.5% [signal inhibitor] |  |
